The whole screen tested about 150,000 compounds, of which about 540 (0.36%) showed an effect of 50% or more. The list shows a part of the results.

The subject of the test is Plasmodium falciparum. The test can be described thus: Primary screen in NF54 nanoGlo assay, in single point, at 2uM, 72h; a lower Z score goes with more inhibition. It is filed as functional, Erythrocyte. The settings on record: timepoint 72 hour.
On to `CC(CCCc1ccccc1)C(=O)N1CCCC(c2nnn[nH]2)C1` (stereo not drawn), for which the “% Inhibition” value is recorded as 4% and the Z score is listed as -0.48.
As to `C[C@@H]1Oc2ccc(S(=O)(=O)N3CCC(C(=O)N4CCN(c5ccccc5)CC4)CC3)cc2NC1=O`, the “% Inhibition” value is listed as -9% and the Z score came out at 1.8.
Regarding `O=C1CN(c2ccc(NC(=O)NCc3cccnc3)cn2)CCN1`, the “% Inhibition” value is on record as -10% and the Z score came out at 1.96.
Regarding `C[C@@H](NS(=O)(=O)c1ccc2c(c1)OCCO2)c1ccccc1`, the “% Inhibition” value amounted to 31% and the Z score is -3.5.
The like results for `CN(C)C(=O)NC1CCN(c2cccs2)CC1` were, in that order, -19% and 2.31.
On to `NS(=O)(=O)c1ccc(CNC(=O)C2CN(C(c3ccccc3)c3ccccc3)C2)cc1`, for which the “% Inhibition” value is given as -11% and the Z score was 1.38.
In the case of `CC(C)c1noc(CN2CCC(N3CCC[C@H](C(=O)N4CCCC4)C3)CC2)n1`, the “% Inhibition” value is recorded as -6% and the Z score turned out to be 1.21.
Turning to `COc1ccc(NC(=O)CC[C@H]2CCCN(C(=O)C#Cc3ccccc3)C2)c(C)c1`, the “% Inhibition” value is reported as -24% and the Z score was found to be 2.22.
`CCc1noc(C2(n3cccn3)CC2)n1`: the “% Inhibition” value is -8% and the Z score amounted to 0.8.
The like results for `C=C[C@H](CO)NC(=O)c1[nH]nc(C(F)(F)F)c1C` were, in that order, -15% and 2.
The like results for `CC1CC(C)CN(C(=O)CN2CCCCCC2=O)C1` (stereo not drawn) were, in that order, 3% and -0.35.
As to `Cc1nnc(NCc2ccc3[nH]c(C)c(C)c3c2)c(C#N)c1C`, the “% Inhibition” value is -3% and the Z score was 0.41.
Consider `O=C(O)C1C2C=CC(C2)C1C(=O)N1CCN(c2ccc(F)cc2)CC1` (stereo not drawn), for which the “% Inhibition” value is reported as -8% and the Z score is given as 1.13.
For the molecule `Cc1cc(C)cc(NC(=O)CC(=O)N[C@H]2CCCC[C@@H]2O)c1`, the “% Inhibition” value is -3% and the Z score turned out to be 0.3.
Consider `CCN(C(=O)CCC(=O)N1CCC(C)(c2noc(-c3ccccc3)n2)CC1)c1ccccc1`, for which the “% Inhibition” value is reported as -22% and the Z score is given as 2.81.
For `CCn1ccc(CN2CC[C@]34C(=O)N(CC(=O)N(C)CCCOc5cccc(c5)[C@H]23)c2ccccc24)n1` the same measures were -4% and 0.68.
The like results for `O=C1N[C@@H](COCc2ccccc2)C(=O)N[C@H]1CO` were, in that order, 1% and -0.1.
For the molecule `O=C(CCN1CCc2ccccc21)Nc1cccc(Cl)c1`, the “% Inhibition” value is reported as -4% and the Z score worked out at 0.76.
For `O=C(Nc1ccccc1N1CCCC1)c1ccc2ccccc2n1` the same measures were -2% and 0.2.
Consider `COc1ccccc1N1CCN(C(=O)c2cc3c(=O)n(CC(C)C)ccc3n2C)CC1`, for which the “% Inhibition” value is -12% and the Z score is given as 1.14.
The like results for `Cc1nc2cncc(N3CCN(C[C@H]4COCCO4)CC3)n2n1` were, in that order, 0% and 0.03.
Take `CS(=O)(=O)N1CCC[C@H](CNC(=O)c2cncc(Cl)c2)C1`: the “% Inhibition” value is given as -7% and the Z score is 0.86.
For `CCOC(=O)N1CCC(N[C@@H](CC)c2ccncc2)CC1` the same measures were 3% and -0.4.
The like results for `CC1CCN(C(=O)NCCCc2nc3c(s2)CCCC3)C1CO` (stereo not drawn) were, in that order, -8% and 1.08.
For `COc1cccc(-c2ccc(N3CCCN(C(=O)CN(C[C@H]4CCCO4)C(=O)c4ccc5c(c4)OCO5)CC3)nn2)c1` the same measures were 6% and -0.77.
With `O=C(NCc1ccco1)C(=O)NC[C@](O)(c1ccoc1)c1ccco1`, the “% Inhibition” value was -8% and the Z score is 1.22.
The like results for `Cc1sc(-c2c[nH]c3ccccc23)nc1-c1c[nH]c2ccccc12` were, in that order, 1% and -0.14.
With `O=C(CNC(=O)C1CCCCC1)NC1CCCCCC1`, the “% Inhibition” value was 28% and the Z score is -3.2.
For `O=C(CCCn1ccnc1)NCCn1cc(Cl)cn1` the same measures were 3% and -0.63.
Take `O=C(Cc1cccc(O)c1)N1CCC2(CCCC2)C1`: the “% Inhibition” value was -3% and the Z score is given as 0.5.
For the molecule `CC(c1ccccc1)n1cc(NC(=O)N2C[C@H](C)C[C@H](O)C2)cn1` (stereo partly drawn), the “% Inhibition” value is reported as -3% and the Z score came out at 0.34.
Consider `C#CCNC(=O)NCc1cccc(C(=O)OC)c1`, for which the “% Inhibition” value is -7% and the Z score is 0.76.
For `CCCNCC[C@H]1CCC(=O)N1C1Cc2ccccc2C1` the same measures were -7% and 0.85.
For `O=S(=O)(c1cccc(F)c1)N1CCN(Cc2cc(Cl)ccc2OCc2cccnc2)CC1` the same measures were -5% and 1.
For `CC[C@H](C)c1nnc(C2(c3cccc(C(F)(F)F)c3)CCOCC2)o1` the same measures were -6% and 0.61.
`COc1ncccc1CNC(=O)C1CCC(=O)C(C)C1` (stereo not drawn): the “% Inhibition” value is 8% and the Z score was -0.86.
With `O=C(Nc1ccc2c(c1)OCO2)c1nnc(CNS(=O)(=O)c2ccccc2C(F)(F)F)s1`, the “% Inhibition” value is given as -6% and the Z score stood at 1.03.
For the molecule `CNS(=O)(=O)NC1CCN(Cc2ccc(Cl)cc2Br)CC1`, the “% Inhibition” value is recorded as -1% and the Z score amounted to 0.12.
For `C=CCn1cc(CN2CC[C@H]2c2cccc(OC)c2)c(C)n1` the same measures were -8% and 1.
The like results for `CC(=O)[C@H](C)n1c(=O)c2c(nc3n2CCCCN3c2ccc(Oc3ccccc3)cc2)n(C)c1=O` were, in that order, 16% and -1.86.
For `CC(=O)N1CCC[C@@H]1C(=O)N1Cc2cnn(-c3ccccc3)c2C1` the same measures were 7% and -1.1.
`Cc1nccn1[C@@H](C)CC(=O)NCCc1cnn(C)c1`: the “% Inhibition” value is -8% and the Z score is reported as 1.06.
Take `Cn1cc2c(NCC3CC4C=CC3CC4)ncnc2n1` (stereo not drawn): the “% Inhibition” value was determined as 2% and the Z score is listed as -0.36.
For `CCOC(=O)C[C@H](NC(=O)c1cccc2c1C(=O)N(C1CCCCC1)C2)c1ccc(OC(C)C)cc1` the same measures were -9% and 1.24.
Turning to `O=C1CC2(CCN(C3CCN(c4cccc(Cl)c4)CC3)CC2)CN1`, the “% Inhibition” value was -23% and the Z score came out at 4.34.
For `CCN(CC)CCCC1CCN(C(=O)C(F)(F)c2ccccn2)CC1` the same measures were -2% and 0.22.
With `O=C(NC1CCC(Oc2ncccc2Cl)CC1)c1cc[nH]n1` (stereo not drawn), the “% Inhibition” value is reported as -5% and the Z score is 0.47.
Regarding `CN(C)c1nc(N)cc(-c2ccc(-n3cccn3)cc2)n1`, the “% Inhibition” value was -1% and the Z score is listed as 0.21.
The like results for `Cc1c(CCNC(=O)N2CCC[C@@H]2C(N)=O)c2cccc3c2n1CCC3` were, in that order, -15% and 1.74.
`c1ccc2c(-c3cnnc(N4CCN5CCC[C@H]5C4)n3)cccc2c1`: the “% Inhibition” value is -18% and the Z score is 2.65.
For `C[C@H]1CCCN(Cn2nnc3ccccc32)C1` the same measures were -29% and 3.37.
For `CN(C)[C@H]1CCc2ccccc2N(Cc2nnn(C(C)(C)C)n2)C1` the same measures were 6% and -1.03.
In the case of `Cc1cc(CN2CCN(C(=O)NCc3ccncc3)CC2)on1`, the “% Inhibition” value is -8% and the Z score came out at 0.71.
For the molecule `Cc1ccc(C(=O)O)c(N2CC[C@@]3(CCCN(C4CCCCC4)C3=O)C2)n1`, the “% Inhibition” value was -1% and the Z score stood at 0.13.

A word on the % Inhibition: it is the relative decrease from the control value, in per cent.

Values taken from ChEMBL document CHEMBL4888484, “Replenishing the malaria drug discovery pipeline: Screening and hit evaluation of the MMV Hit Generation Library 1 (HGL1) against asexual blood stage Plasmodium falciparum ,using a nano luciferase reporter read-out” (2022).
